Reference: publication PMC4336329 (PLoS ONE, 2015)
Only a part is listed here, and it is no random draw. The effect is printed as a negative number.

Each compound was assayed against human ether-à-go-go-related gene (hERG) potassium channel (human, UniProt Q12809) (assay: primary screen, population patch clamp on CHO cells stably expressing hERG; higher = less effect of the substance).
Experimental: Briefly, Chinese hamster ovary (CHO) cells stably expressing the hERG channel were dislodged from tissue culture flasks and dispensed into PPC plates. […] During the recording, background leak currents were estimated by a 100 ms step to -80 mV from an initial holding potential of -70 mV and subtracted from the subsequent current measurement. The campaign was conducted in two phases using slight differences in recording protocol. In the first phase, the initial voltage pulse used a 100 ms step to -30 mV from a holding potential of -70 mV, a 2 s conditioning step to +25 mV, and a 2 s test step to -30 mV. During the second phase of the screen, the potential during the conditioning step was raised to +45 mV. In both phases of the campaign, a secondary voltage pulse was applied using the same parameters as the second phase initial pulse. The initial and secondary pulses were applied in the absence of compound, and upon application of 1 μM and 10 μM test concentrations. […]
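Further: peak tail current of the secondary pulse compared with the same well before compound.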

Structure (SMILES) | hERG current change (%, negative = inhibition) at 10uM [%]
Cl.O.Oc1ccc2c3c1O[C@H]1[C@@H](O)CC[C@@]4(O)[C@@H](C2)N(CC2CCC2)CC[C@]314 | -33.5
C(=C\c1ccccc1)/CN1CCN(C(c2ccccc2)c2ccccc2)CC1 | -6.32
Cl.Oc1ccc2c3c1O[C@H]1[C@@H](O)CC[C@@]4(O)[C@@H](C2)N(CC2CCC2)CC[C@]314 | -3.74
Clc1ccc(COC(Cn2ccnc2)c2ccc(Cl)cc2Cl)c(Cl)c1.O=[N+]([O-])O (stereo not shown) | -12.1
CN(C)CCN(Cc1cccs1)c1ccccn1.Cl | -72.7
CNCC[C@@H](Oc1ccc(C(F)(F)F)cc1)c1ccccc1.Cl | -48.1
CCN(CC)CCOc1ccc(/C(=C(\Cl)c2ccccc2)c2ccccc2)cc1.O=C(O)CC(O)(CC(=O)O)C(=O)O | 1.19
